Assay results from PubChem BioAssay AID1768 (National Center for Advancing Translational Sciences (NCATS), 2009).
The campaign covered roughly 270,000 compounds. About 620 (0.23%) were called active. Inconclusive means that the source gave no clear call. Such entries were picked first, then a sample of the others. The call rests on the fitted dose curve; in most records, active means well fitted inhibition curve with a large enough effect in the polarisation, with a control signal flat (not every such curve was filed as active); inconclusive means small, poorly fitted or top-dose-only effect, or effect the other way, or a change in a side signal; inactive means no such curve, though single readings can be large or run the other way; the % refers to the polarisation. Where the call is inconclusive, the potency comes from a doubtful curve fit. “Side channel” marks fits to a control or component signal instead of the main read-out.

Biological target: Menin (Homo sapiens) (UniProt O00255)
Chain of UniProt O00255 (O00255 whole entry, looked up): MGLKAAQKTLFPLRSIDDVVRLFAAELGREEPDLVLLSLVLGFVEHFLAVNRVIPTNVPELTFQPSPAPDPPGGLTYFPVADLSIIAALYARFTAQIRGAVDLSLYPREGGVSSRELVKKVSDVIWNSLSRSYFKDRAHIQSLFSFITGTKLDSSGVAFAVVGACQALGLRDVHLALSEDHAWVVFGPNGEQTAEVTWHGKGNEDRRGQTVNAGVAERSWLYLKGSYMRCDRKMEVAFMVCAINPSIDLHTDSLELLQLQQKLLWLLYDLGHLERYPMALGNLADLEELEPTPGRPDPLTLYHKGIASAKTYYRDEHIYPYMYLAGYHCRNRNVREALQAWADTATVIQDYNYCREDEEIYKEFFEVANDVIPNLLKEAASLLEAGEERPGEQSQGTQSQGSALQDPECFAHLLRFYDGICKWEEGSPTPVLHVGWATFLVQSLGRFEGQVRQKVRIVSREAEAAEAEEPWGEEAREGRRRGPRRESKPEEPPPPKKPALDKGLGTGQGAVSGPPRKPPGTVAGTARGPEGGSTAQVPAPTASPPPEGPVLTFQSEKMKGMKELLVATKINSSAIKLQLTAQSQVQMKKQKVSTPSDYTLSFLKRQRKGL
Experiment: qHTS Assay for Inhibitors Targeting the Menin-MLL Interaction in MLL Related Leukemias: Competition With Texas Red Labeled MLL-derived Mutant Peptide; on FP activity change, negative = inhibition: % of control where 0% means no effect
Details: fluorescence polarization; FP activity change, negative = inhibition: at 61.6 µM (top of the series)
From the text: qHTS Assay for Inhibitors Targeting the Menin-MLL Interaction in MLL Related Leukemias NIH Chemical Genomics Center [NCGC] NIH Molecular Libraries Probe Centers Network [MLPCN] MLPCN Grant: MH084875-01A1 Assay Submitter (PI): Jolanta Grembecka, Tomasz Cierpicki, University of Virginia Translocations of the MLL (Mixed Lineage Leukemia) gene are frequently found in human leukemias affecting both children and adults. Fusion of MLL to one of more than 60 genes results in generation of oncogenic proteins upregulating Hox genes, which are vital to blood cell development. Patients harboring fusion of the MLL gene suffer from aggressive leukemias and respond poorly to available therapies. All of the oncogenic fusion proteins have a preserved N-terminal fragment of MLL that has been identified to interact with menin. It has been recently discovered that association with menin is critical to the leukemogenic activity of the MLL fusion oncoproteins. Selective targeting of the menin-MLL interaction could provide an attractive therapeutic approach to develop novel drugs for MLL-related leukemias. Small molecules blocking the menin-MLL interaction should reverse the oncogenic potential of MLL fusion proteins. We have developed and optimized a fluorescence polarization-based assay for the identification of Menin-MLL inhibitors. The assay was run employing two different MLL-derived peptides. The present assay uses a 12 amino acid peptide labeled with fluorescein at its N-terminus. This peptide consists of the menin high affinity binding motif from MLL and is potently bound by menin. Another peptide with a mutated sequence, labeled with Texas Red, was used in parallel as a less stringent screen for inhibitors.
The Menin protein, the MLL-wild type (w.t.) derived peptide (N-terminal 12 amino acids), the MLL-derived peptide labeled with Texas Red and the MLL-w.t. peptide labeled with Fluorescein were kindly supplied by laboratory of Dr. Jolanta Grembecka, University of Virginia. All protein and peptide solutions were stored in single use aliquots at -80C. The Eu3+ Cyrptate-conjugated mouse monoclonal antibody anti-6 Histidine (Eu3+-AB) and the Streptavidin-XL665 conjugate (XL665) were purchased from Cisbio International (Bedford, MA). All antibody and XL665 conjugate solution stocks were stored in single use aliquots at -20C. The Buffer components for all assays were purchased from Sigma-Aldrich (St. Louis, MO) and Invitrogen (Carlsbad, CA). FP Assay Reagents: 1. FP reaction buffer: 50 mM Tris-HCl pH 7.5, 50 mM NaCl, 1mM DTT. Before use, 0.05% BSA is added. 2. Menin protein, MLL-w.t. labeled with fluorescein, MLL-mutant peptide labeled with texas red. Stored in singe use aliquots at -80C. 3. MLL-w.t. unlabeled peptide as positive control: 10 uM final in FP buffer. FP Assay Procedure: 1. Prepare Menin at 200 nM, MLL-w.t.-fluorescein at 25 nM, and MLL-mutant-texas red at 50 nM mixture in FP buffer. 2. Prepare Menin at 200 nM, MLL-w.t.-fluorescein at 25 nM, MLL-mutant-texas red at 50 nM, and 10 uM MLL-w.t. unlabeled mixture in FP buffer. 3. Prepare MLL-w.t.-fluorescein at 25 nM and MLL-mutant-texas red at 50 nM mixture in FP buffer. 3. Dispense 4 ul per well of reagent in step 1 in columns 2, 4 - 48 in a black 1536 well plate, dispense 4 ul per well of reagents from steps 2 and 3 in columns 1 and 3 respectively. Incubate plate at ambient for 15 minutes. 4. Transfer 23 nl per well of compound to plate and incubate at ambient for 1 hr. 5. Read fluorescence polarization for each label using the PerkinElmer Envision. Envision protocol for fluorescein: FITC FP Dual Enh Mirror, Excitation filter 480, Emission filter (1) P-pol 535, Emission filter (2) S-pol 535 Envision protocol for texas red: FP Dual Enh Mirror, Excitation filter 555, Emission filter (1) P-pol 632, Emission filter (2) S-pol 632
Potency means the concentration at half of the fitted maximal effect; tags describe the fitted curve by direction and shape or compound fluorescence and quenching.

Compound	Potency	FP activity change, negative = inhibition
O=[N+]([O-])c1ccc(/C([O-])=C(/C(=S)NCc2ccco2)[n+]2ccccc2)cc1	inconclusive: 8.91 µM [quencher, side channel, partial curve]	
O=C(CSC1CC(=O)N(CCc2ccccc2)C1=O)Nc1ccc(Br)cc1 (centres undefined)	inconclusive: 12.6 µM [quencher, side channel, partial curve]	
O=C(NC1CC2CCCC(C1)N2S(=O)(=O)c1ccccc1)c1ccco1 (centres undefined)	inconclusive: 8.91 µM [inhibitor, single point]	
CC(C)C(=O)n1nc(-c2cccnc2)nc1NCc1cccs1	inconclusive: 10 µM [fluorescent, side channel, partial curve, poor fit]	
CCOc1ccc(C(=O)Nc2ccc(N3CCN(C)CC3)cc2)cc1	inconclusive: 2 µM [inhibitor, full curve, poor fit]	
COc1ccc(NC(=O)c2cc([N+](=O)[O-])ccc2N2CCCCC2)cc1	inconclusive: 39.8 µM [fluorescent, side channel, single point]	
CCOc1c(O)ccc(/C=C2\SC(=S)NC2=O)c1[N+](=O)[O-]	inconclusive: 25.1 µM [quencher, side channel, single point]	
N#C/C(=C\c1ccc(O)c([N+](=O)[O-])c1)c1nc2ccccc2s1	inconclusive: 22.4 µM [quencher, side channel, partial curve]	
O=C(NCc1ccccc1OC(F)(F)F)C1CCC(=O)N(Cc2cccc(F)c2)C1 (centres undefined)	inconclusive: 5.62 µM [inhibitor, partial curve]	
Clc1cccc(CN2CCN(Cc3ccco3)CC2)c1	inconclusive: 22.4 µM [inhibitor, partial curve]	
CCc1ccc(C(O)(CC(C)C)C(CN2CCOCC2)c2ccccc2)cc1 (centres undefined)	inconclusive: 11.2 µM [fluorescent, partial curve]	
Cc1[nH]n(-c2ncc(-c3ccccc3)s2)c(=O)c1C(c1ccc(Br)cc1)C(C#N)C#N (centres undefined)	inconclusive: 12.6 µM [quencher, side channel, partial curve]	
CCOC(=O)CC1COCCN1C(=O)c1cc(COc2ccc(F)c(F)c2)on1 (centres undefined)	inconclusive: 2.82 µM [inhibitor, full curve, poor fit]	
O=C(O)c1ccc2c(=O)n3c(nc2c1)/C(=C/c1ccc(C(F)(F)F)cc1)CC3	inconclusive: 10 µM [quencher, side channel, partial curve]	
Cc1nc2cc(NCc3ccccc3O)ccc2n1Cc1ccccc1	inconclusive: 8.91 µM [inhibitor, single point]	
CCCOc1ccc2c(c1)C(=NN=C(N)N)c1cc(OCCC)ccc1-2	inconclusive: 3.16 µM [inhibitor, partial curve]	
c1coc(C2Nc3cccc4cccc(c34)N2)c1	inconclusive: 15.8 µM [quencher, side channel, partial curve]	
N#CC(C#N)=C1C=C2C=C(N3CCOCC3)CCC2CC1 (centres undefined)		inactive: 7.62%
Cc1nc(N=C(N)N)nc2c(C)cccc12	inconclusive: 3.55 µM [fluorescent, side channel, single point]	
COc1cccc(C(=O)/C=C/Nc2ccc(S(=O)(=O)Nc3cc(OC)nc(OC)n3)cc2)c1	inconclusive: 25.1 µM [quencher, side channel, partial curve]	

Compound	Potency	FP activity change, negative = inhibition
CCNc1nc(N)c(C(=O)c2ccc(Cl)s2)s1	inconclusive: 25.1 µM [quencher, side channel, partial curve]	
CCC(=O)NC(=S)Nc1ccc(NC(=O)c2ccc([N+](=O)[O-])cc2)cc1	inconclusive: 17.8 µM [quencher, side channel, partial curve]	
CCCCN(CC)S(=O)(=O)c1ccc(C(=O)N(CCCN(C)C)c2nc3cc(C)cc(C)c3s2)cc1	inconclusive: 8.91 µM [fluorescent, side channel, full curve, poor fit]	
O=C(COc1ccc(Br)cc1CNC1CCCCC1)NCCc1ccccc1	inconclusive: 7.94 µM [inhibitor, partial curve, poor fit]	
O=C(C1CCN(Cc2ccccc2O)CC1)N1CCN(Cc2ccc3c(c2)OCO3)CC1	inconclusive: 39.8 µM [inhibitor, single point]	
CC(C)(C)OC(=O)NCCc1nnc(SCc2ccc(Cl)cc2Cl)o1	inconclusive: 22.4 µM [inhibitor, single point]	
CSCCC(NC(=O)C12CC3CC(CC(C3)C1)C2)C(=O)OCC(=O)c1ccc(Cl)cc1 (centres undefined)	inconclusive: 3.98 µM [fluorescent, side channel, single point]	
CNc1cccccc1=S		inactive: 9.83%
O=C(/C(=C/O)N=Nc1ccccc1)c1ccc(Cl)cc1	inconclusive: 14.1 µM [quencher, side channel, partial curve]	
Cc1ccc(Nc2nc3ccccc3o2)cc1F	inconclusive: 17.8 µM [quencher, single point]	
Cc1nnc2c(-c3ccccc3)nc3ccccc3n12	inconclusive: 39.8 µM [inhibitor, single point]	
CCCCn1c(-c2cccc(C)c2)nc2cc3[nH]c(=O)c(C(C)C)nc3cc21	inconclusive: 7.94 µM [fluorescent, side channel, full curve]	
Cc1ccc2nc(SCC(=O)NCc3ccco3)c(C#N)cc2c1	inconclusive: 14.1 µM [inhibitor, partial curve, poor fit]	
CC(=O)/C(C[N+]1(C)CCCCC1)=N\O		inactive: -1.53%
Cc1ccccc1CN1CCNC(=O)C1CC(=O)NC1CCCCCCC1 (centres undefined)	inconclusive: 11.2 µM [inhibitor, partial curve, poor fit]	
Cc1cc(C)cc(Oc2cc(NC(=O)c3cn(C)nc3C)cc([N+](=O)[O-])c2)c1	inconclusive: 10 µM [quencher, side channel, partial curve]	
CC(=O)c1c(C)[nH]c(C(=O)NCc2ccccc2Cl)c1C		inactive: -21.6%
O=C1CSC(=S)N1/N=C/C=C/c1ccccc1	inconclusive: 31.6 µM [quencher, side channel, single point]	
CC1(C)Cc2c(sc3[nH]c(=S)n(Cc4ccco4)c(=O)c23)CO1	inconclusive: 25.1 µM [quencher, side channel, partial curve]	
Cc1ccc(OCC(=O)N2CCN(c3nnc(-c4ccc(C)cc4)c4ccccc34)CC2)cc1	inconclusive: 2.24 µM [fluorescent, side channel, full curve]	

Compound	Potency	FP activity change, negative = inhibition
Cc1ccc(NC(=O)CSc2nnc(-c3cccnc3)n2-c2ccc(C)cc2)cc1	inconclusive: 28.2 µM [fluorescent, side channel, single point]	
COc1cc(C(=O)NCC(=O)N/N=C/c2ccc(-c3cccc([N+](=O)[O-])c3)o2)cc(OC)c1OC	inconclusive: 28.2 µM [quencher, side channel, single point]	
O=C(COc1ccccc1)NC(NC(=S)Nc1ccccc1C(=O)O)C(Cl)(Cl)Cl (centres undefined)	inconclusive: 12.6 µM [quencher, side channel, partial curve]	
CCOc1cccc(CNc2ccc(O)cc2)c1OCc1ccc(Cl)cc1	active: 31.6 µM	
C/C(=N\NC(=O)c1cccc2ccccc12)c1cccs1	inconclusive: 28.2 µM [fluorescent, side channel, single point]	
CCn1cc(C(=O)O)c(=O)c2cc(F)c(N3CCN(C(=S)NC(=O)c4ccc(Br)cc4)CC3)cc21	inconclusive: 14.1 µM [inhibitor, partial curve]	
O=C(C1=C[C@H](c2ccc(C(F)(F)F)cc2)C[C@H](OCc2ccc(CO)cc2)O1)N1CCN(Cc2ccccc2)CC1	inconclusive: 14.1 µM [fluorescent, side channel, partial curve]	
Cc1cc(C(=O)NCCCn2ccnc2)sc1-c1ccccc1		inactive: -7.19%
Nc1ccc(S(=O)(=O)Nc2cccc3cccnc23)cc1	inconclusive: 39.8 µM [quencher, side channel, partial curve]	
N/C(=N\OC(=O)c1cc(Br)ccc1Cl)c1cccnc1	inconclusive: 39.8 µM [inhibitor, single point]	
Cc1cc(C)n2c(SCC(=O)Nc3ccc(Cl)cn3)nnc2n1	inconclusive: 39.8 µM [inhibitor, single point]	
COc1cccc2cc(-c3nc4ccccc4[nH]3)c(=O)oc12		inactive: 23%
c1ccc2c(N3CCCC3)nc(-c3ccncc3)nc2c1	inconclusive: 4.47 µM [inhibitor, single point]	
C(=C\c1cc(/C=C/c2ccccc2)ncn1)/c1ccccc1	inconclusive: 39.8 µM [inhibitor, single point]	
CCc1nc(SCC#N)c(C#N)cc1C	inconclusive: 39.8 µM [inhibitor, single point]	
Cc1cc(NC(=O)CC2Oc3ccccc3NC2=O)ccc1Br (centres undefined)	inconclusive: 39.8 µM [fluorescent, single point]	
O=C(OCC(O)COc1ccccc1)c1ccc([N+](=O)[O-])cc1 (centres undefined)	inconclusive: 22.4 µM [fluorescent, partial curve]	
O=C(C[n+]1ccccc1)Nc1c(Cl)cc(Cl)cc1Cl	inconclusive: 15.8 µM [quencher, side channel, partial curve]	
O=[N+]([O-])c1cc2c(c(CSc3nnnn3-c3ccc(O)cc3)c1)OCOC2	inconclusive: 12.6 µM [quencher, side channel, partial curve]	
